According to PMC4739766 (eLife, 2015):
Numbering of substitutions follows the chain as printed. Read-outs that look alike come from different tables or passages of the source. Results are given in words; binding and its absence hold for the method and conditions named. For some of these results: In cells and extracts the contact can be indirect. Some binding calls cover weakened binding; strength is not graded here. For some of these results: Sequences can lack the tags named with a protein.

Chains of the proteins cited; added tags and fusions are not shown. Lines headed by an entry give the natural chain unless they say otherwise; changes in a name come on top. A line that says so, or that is headed by a name, gives the form on record, which may keep a tag or linker. Residues count along the entry.
full length wild type rat p75^NTR tagged at the C terminus with EGFP(A206K) (P07174, residues 30-425): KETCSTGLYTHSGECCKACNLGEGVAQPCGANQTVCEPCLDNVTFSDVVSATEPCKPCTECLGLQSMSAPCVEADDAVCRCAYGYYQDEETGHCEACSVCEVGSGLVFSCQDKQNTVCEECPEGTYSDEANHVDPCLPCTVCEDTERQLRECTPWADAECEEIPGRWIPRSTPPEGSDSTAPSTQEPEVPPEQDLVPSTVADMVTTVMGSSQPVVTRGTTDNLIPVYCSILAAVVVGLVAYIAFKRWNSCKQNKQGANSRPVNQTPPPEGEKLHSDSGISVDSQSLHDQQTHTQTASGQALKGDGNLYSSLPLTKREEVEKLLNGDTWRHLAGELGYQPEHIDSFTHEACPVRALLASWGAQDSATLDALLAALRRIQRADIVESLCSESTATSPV
full length rat p75^NTR CARD binding site (CBS) mutant D355A/H359A/E363A tagged at the C terminus with EGFP(A206K) (P07174, form named): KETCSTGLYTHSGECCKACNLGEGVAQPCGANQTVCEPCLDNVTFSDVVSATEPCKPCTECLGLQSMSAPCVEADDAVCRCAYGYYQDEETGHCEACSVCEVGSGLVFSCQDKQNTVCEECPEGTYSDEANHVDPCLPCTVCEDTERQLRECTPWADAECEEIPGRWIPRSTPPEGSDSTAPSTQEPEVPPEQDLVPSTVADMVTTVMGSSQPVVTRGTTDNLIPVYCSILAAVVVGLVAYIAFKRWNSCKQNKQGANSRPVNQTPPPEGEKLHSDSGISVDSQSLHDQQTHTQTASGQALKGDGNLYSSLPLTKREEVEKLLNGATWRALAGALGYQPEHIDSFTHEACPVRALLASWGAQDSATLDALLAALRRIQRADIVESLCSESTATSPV
UniProt P08138: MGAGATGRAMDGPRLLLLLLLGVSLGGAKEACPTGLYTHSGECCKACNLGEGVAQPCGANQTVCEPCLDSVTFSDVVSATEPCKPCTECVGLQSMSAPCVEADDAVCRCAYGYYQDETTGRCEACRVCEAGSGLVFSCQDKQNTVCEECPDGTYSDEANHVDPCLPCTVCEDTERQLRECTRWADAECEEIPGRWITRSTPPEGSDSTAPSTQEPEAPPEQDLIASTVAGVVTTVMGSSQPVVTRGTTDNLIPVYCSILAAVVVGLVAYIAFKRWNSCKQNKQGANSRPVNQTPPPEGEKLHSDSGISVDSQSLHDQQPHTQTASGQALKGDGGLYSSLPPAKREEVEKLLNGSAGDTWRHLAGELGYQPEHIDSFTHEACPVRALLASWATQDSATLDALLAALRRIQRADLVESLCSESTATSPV
full-length human p75^NTR, wild type: residues 29-427 of P08138
UniProt P61586, residues 2-190: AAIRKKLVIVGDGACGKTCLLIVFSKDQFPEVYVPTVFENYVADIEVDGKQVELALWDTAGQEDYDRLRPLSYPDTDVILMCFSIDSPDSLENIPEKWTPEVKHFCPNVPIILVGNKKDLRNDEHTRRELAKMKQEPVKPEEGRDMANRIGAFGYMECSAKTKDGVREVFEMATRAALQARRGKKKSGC
UniProt O43353: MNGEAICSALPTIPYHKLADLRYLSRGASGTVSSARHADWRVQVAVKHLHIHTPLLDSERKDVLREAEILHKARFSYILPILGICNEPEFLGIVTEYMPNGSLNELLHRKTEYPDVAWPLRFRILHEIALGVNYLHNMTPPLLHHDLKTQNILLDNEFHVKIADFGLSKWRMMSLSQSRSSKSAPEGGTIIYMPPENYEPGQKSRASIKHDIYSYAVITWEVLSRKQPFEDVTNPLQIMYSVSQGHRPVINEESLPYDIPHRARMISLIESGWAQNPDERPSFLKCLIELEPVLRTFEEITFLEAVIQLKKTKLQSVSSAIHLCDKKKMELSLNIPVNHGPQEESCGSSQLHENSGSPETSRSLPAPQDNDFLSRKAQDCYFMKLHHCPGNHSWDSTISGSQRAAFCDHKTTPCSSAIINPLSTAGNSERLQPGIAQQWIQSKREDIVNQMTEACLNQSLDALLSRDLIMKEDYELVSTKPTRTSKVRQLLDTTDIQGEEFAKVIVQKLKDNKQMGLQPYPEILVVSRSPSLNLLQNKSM

Legend:
[1] = target: full length rat p75^NTR CARD binding site (CBS) mutant D355A/H359A/E363A tagged at the C terminus with EGFP(A206K) (rat) (UniProt P07174); assay: FRET or BRET; homo-FRET anisotropy microscopy of EGFP-tagged full-length rat p75NTR in transfected COS-7 cells, before and for 15 min after NGF (100 ng/ml) or vehicle
[2] = target: human p75^NTR death domain (330–427) (human) (UniProt P08138); assay: NMR solution structure; 1 mM 13C,15N-labelled p75NTR DD mixed with 1 mM unlabelled p75NTR DD; 50 mM phosphate buffer, 10 mM DTT, 1 mM EDTA, pH 6.9, 28°C; both purified
[3] = target: human p75^NTR death domain (330–427) (human) (UniProt P08138); assay: condition: only in TRIS or HEPES buffer at pH 6.0–7.0; NMR [1H-15N] HSQC spectra; p75NTR DD alone in TRIS or HEPES buffer at pH 6.0–7.0; both purified
[4] = target: human p75^NTR death domain (330–427) (human) (UniProt P08138); assay: NMR [1H-15N] HSQC spectra; p75NTR DD alone in phosphate buffer, pH 6.9, 28°C; both purified
[5] = target: human RhoA (2–190), unprenylated RhoA:GDP:Mg2+ (human) (UniProt P61586); assay: SPR; unprenylated RhoA:GDP:Mg2+ immobilised by amine coupling on CM5 chip; BIAcore T200, 22°C; 10 mM HEPES, 50 mM NaCl, 0.005% Surfactant P20, pH 7.0 (1 mM MgCl2 and 100 µM GDP for RhoGDI); steady-state analysis, one binding site model; both purified
[6] = target: full length wild type rat p75^NTR tagged at the C terminus with EGFP(A206K) (rat) (UniProt P07174); assay: FRET or BRET; homo-FRET anisotropy microscopy of EGFP-tagged full-length rat p75NTR in transfected COS-7 cells, before and for 15 min after NGF (100 ng/ml) or vehicle
[7] = target: full-length human p75^NTR, wild type (human) (UniProt P08138); assay: co-IP; transfected HEK293 cells; lysate immunoprecipitated with anti-p75 antibody (ANT-007) on Protein G-Sepharose, 16 hr at 4°C; washes with 1% Triton X-100, 0.2 M NaCl; Western blot
[8] = target: human p75^NTR death domain (330–427) (human) (UniProt P08138); assay: NMR titration; [1H-15N] HSQC spectra of 15N-RhoGDI in complex with p75NTR DD in the presence of 250 mM NaCl; 20 mM HEPES, pH 6.9, 28°C; both purified
[9] = target: human p75^NTR death domain (330–427) (human) (UniProt P08138); assay: NMR titration; [1H-15N] HSQC spectra of p75NTR DD in the presence of RhoGDI or RhoGDI ΔN, molar ratio 1:4, pH 6.9, 28°C; both purified
[10] = target: human p75^NTR death domain (330–427) (human) (UniProt P08138); assay: NMR solution structure; 0.5 mM 13C,15N-labelled partner mixed with 2 mM unlabelled partner; 10 mM HEPES, 10 mM DTT, 1 mM EDTA, pH 6.9, 28°C; both purified
[11] = target: full-length human p75^NTR, wild type (human) (UniProt P08138); assay: co-IP; transfected HEK293 cells; lysate immunoprecipitated with anti-p75 antibody (ANT-007) on Protein G-Sepharose, 16 hr at 4°C; washes with 1% Triton X-100, 0.2 M NaCl; Western blot; remark: listed apart in the source

## full length rat p75^NTR CARD binding site (CBS) mutant D355A/H359A/E363A tagged at the C terminus with EGFP(A206K) (from UniProt P07174 30-425) (receptor)
[1]
  binding: binds

## human p75^NTR death domain (330–427) (from UniProt P08138 330-427) (domain or fragment)
[2]
  binding: binds weakly
[3]
  binding: no binding
[4]
  binding: binds weakly
[5]
  binding: no binding (tested: 125–500 nM)

## full length wild type rat p75^NTR tagged at the C terminus with EGFP(A206K) (from UniProt P07174 30-425) (receptor)
[6]
  binding: binds

## Flag-tagged full-length human RIP2, wild type (from UniProt O43353 1-540) (enzyme)
[7]
  binding: binds

B1: human RhoGDI (2–204) (protein, UniProt P52565 2-204)
chain: AEQEPTAEQLAQIAAENEEDEHSVNYKPPAQKSIQEIQELDKDDESLRKYKEALLGRVAVSADPNVPNVVVTGLTLVCSSAPGPLELDLTGDLESFKKQSFVLKEGVEYRIKISFRVNREIVSGMKYIQHTYRKGVKIDKTDYMVGSYGPRAEEYEFLTPVEEAPKGMLARGSYSIKSRFTDDDKTDHLSWEWNLTIKKDWKD
[8]
  binding: binds weakly
[9]
  binding: binds weakly
[10]
  binding: binds weakly

B2: Myc-tagged full-length human RhoGDI, wild type (protein, UniProt P52565 1-204)
chain: MAEQEPTAEQLAQIAAENEEDEHSVNYKPPAQKSIQEIQELDKDDESLRKYKEALLGRVAVSADPNVPNVVVTGLTLVCSSAPGPLELDLTGDLESFKKQSFVLKEGVEYRIKISFRVNREIVSGMKYIQHTYRKGVKIDKTDYMVGSYGPRAEEYEFLTPVEEAPKGMLARGSYSIKSRFTDDDKTDHLSWEWNLTIKKDWKD
[11]
  binding: binds

B3: Myc-tagged full-length human RhoGDI, Lys99 substituted by alanine (protein, UniProt P52565 1-204)
chain: B2 chain with K99A
[11]
  binding: no binding

B4: Myc-tagged full-length human RhoGDI, Lys199 substituted by alanine (protein, UniProt P52565 1-204)
chain: B2 chain with K199A
[11]
  binding: no binding
